# Assay results from PubChem BioAssay AID1224863 (Southern Research Institute, 2016).
# Where “and” joins values, the source holds several entries; their conditions need not be identical. Equal values may be shown once. The list shows a part of the results. Further columns of the screen follow, without active or inactive calls.
# Experiments:
# [1] = compounds raising F508del-CFTR protein level – cell-based, HeLa F508del-CFTR, immunofluorescence, viability, primary screen (AID 1224863); details: immunofluorescence total CFTR, 24 h, stronger effect = higher value; min viability: measured here: HeLa viability, alamarBlue, dose 50, library dosed in µM unless noted; viability: measured here: primary viability 25 uM, at 25 µM, library dosed in µM unless noted;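 as to fold increase: total CFTR protein by anti-CFTR immunofluorescence in fixed cells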
# [2] = target: Cystic fibrosis transmembrane conductance regulator (Homo sapiens) (UniProt P13569); experiment: as above; details: immunofluorescence total CFTR, 24 h, stronger effect = higher value; measured here: primary screen single dose 25 uM, at 25 µM, library dosed in µM unless noted
# Chain of UniProt P13569 (P13569 whole entry, looked up): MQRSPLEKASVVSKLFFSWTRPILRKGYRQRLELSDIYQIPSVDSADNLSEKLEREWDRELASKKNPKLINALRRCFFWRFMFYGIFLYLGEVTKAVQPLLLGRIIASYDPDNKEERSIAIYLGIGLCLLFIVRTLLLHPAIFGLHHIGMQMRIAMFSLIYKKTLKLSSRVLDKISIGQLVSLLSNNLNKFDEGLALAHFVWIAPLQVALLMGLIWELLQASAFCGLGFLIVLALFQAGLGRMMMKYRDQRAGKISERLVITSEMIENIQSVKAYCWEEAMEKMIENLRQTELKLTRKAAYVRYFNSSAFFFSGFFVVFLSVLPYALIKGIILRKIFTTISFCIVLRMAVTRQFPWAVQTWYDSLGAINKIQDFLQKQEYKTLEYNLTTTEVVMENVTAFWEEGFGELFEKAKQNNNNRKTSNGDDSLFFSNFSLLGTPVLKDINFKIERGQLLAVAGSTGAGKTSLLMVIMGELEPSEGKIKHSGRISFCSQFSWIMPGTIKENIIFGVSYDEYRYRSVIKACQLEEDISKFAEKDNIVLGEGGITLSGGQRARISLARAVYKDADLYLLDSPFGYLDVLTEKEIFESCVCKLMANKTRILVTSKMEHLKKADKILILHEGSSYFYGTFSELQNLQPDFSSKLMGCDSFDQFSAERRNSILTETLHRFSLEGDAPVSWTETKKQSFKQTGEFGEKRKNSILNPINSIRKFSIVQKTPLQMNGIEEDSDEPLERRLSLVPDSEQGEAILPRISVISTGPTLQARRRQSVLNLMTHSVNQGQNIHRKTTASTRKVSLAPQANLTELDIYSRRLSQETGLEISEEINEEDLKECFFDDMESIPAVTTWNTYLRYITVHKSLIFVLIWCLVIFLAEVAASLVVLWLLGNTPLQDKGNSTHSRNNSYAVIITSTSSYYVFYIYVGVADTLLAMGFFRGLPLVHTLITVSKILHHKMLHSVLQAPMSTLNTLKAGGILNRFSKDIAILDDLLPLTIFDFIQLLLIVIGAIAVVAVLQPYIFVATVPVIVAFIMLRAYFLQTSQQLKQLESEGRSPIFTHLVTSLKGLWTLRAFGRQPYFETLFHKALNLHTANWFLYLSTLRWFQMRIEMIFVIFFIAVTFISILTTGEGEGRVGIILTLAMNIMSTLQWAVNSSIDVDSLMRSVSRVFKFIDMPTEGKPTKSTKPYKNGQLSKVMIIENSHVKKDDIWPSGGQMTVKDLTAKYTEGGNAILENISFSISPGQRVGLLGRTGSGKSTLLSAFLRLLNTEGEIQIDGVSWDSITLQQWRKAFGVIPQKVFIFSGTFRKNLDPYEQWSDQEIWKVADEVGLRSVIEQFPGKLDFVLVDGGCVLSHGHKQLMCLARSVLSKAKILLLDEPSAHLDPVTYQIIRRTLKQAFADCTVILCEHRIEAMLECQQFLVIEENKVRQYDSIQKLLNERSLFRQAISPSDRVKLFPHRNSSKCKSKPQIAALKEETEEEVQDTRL
smiles,measurement,setting,value
O=C(Nc1nc(-c2cccs2)c(-c2cccs2)s1)C1CCCC1,min viability,[1],"63.7% [measured here: HeLa viability, alamarBlue, dose 20, library dosed in µg/mL]"
same,viability,[1],"70% [measured here: primary viability 10 ug/mL, library dosed in µg/mL]"
same,fold increase,[2],"1.85 [measured here: primary screen 10 ug/mL, library dosed in µg/mL]"
O=c1[nH]c(CSC2=NCCN2)nc2cc(Cl)ccc12,min viability,[1],"73.2% [measured here: HeLa viability, alamarBlue, dose 0.156, library dosed in µg/mL]"
same,viability,[1],"77% [measured here: primary viability 10 ug/mL, library dosed in µg/mL]"
same,fold increase,[2],"1.46 [measured here: primary screen 10 ug/mL, library dosed in µg/mL]"
CC(C)c1c(C(=O)c2ccccc2)c(-c2ccccc2)c(-c2ccc(F)cc2)n1CC[C@@H](O)C[C@@H](O)CC(=O)O,min viability,[1],"79.4% [measured here: HeLa viability, alamarBlue, dose 0.78, library dosed in µM]"
same,viability,[1],91%
same,fold increase,[2],2.42
c1ccc(COc2cccc(Nc3ccc4nnnn4n3)c2)nc1,min viability,[1],"55.7% [measured here: HeLa viability, alamarBlue, dose 1.25, library dosed in µg/mL]"
same,viability,[1],"84% [measured here: primary viability 10 ug/mL, library dosed in µg/mL]"
same,fold increase,[2],"2.23 [measured here: primary screen 10 ug/mL, library dosed in µg/mL]"
Cn1c(=O)c2c(ncn2CCC(=O)NCC2CCCCC2)n(C)c1=O,min viability,[1],"70.6% [measured here: HeLa viability, alamarBlue, dose 0.63, library dosed in µg/mL]"
same,viability,[1],"97% [measured here: primary viability 10 ug/mL, library dosed in µg/mL]"
same,fold increase,[2],"3.14 [measured here: primary screen 10 ug/mL, library dosed in µg/mL]"
Cc1ccc(C(=O)/C=C/c2cc(Cl)c3c(c2)OCCO3)o1,min viability,[1],"69.8% [measured here: HeLa viability, alamarBlue, dose 0.63, library dosed in µg/mL]"
same,viability,[1],"81% [measured here: primary viability 10 ug/mL, library dosed in µg/mL]"
same,fold increase,[2],"1.48 [measured here: primary screen 10 ug/mL, library dosed in µg/mL]"
S=c1nc[nH]c2nc[nH]c12,viability,[1],69%
same,fold increase,[2],1.29
CCCc1nc(C)c2c(=O)[nH]c(-c3cc(S(=O)(=O)N4CCN(CC)CC4)ccc3OCC)nn12,min viability,[1],"55.2% [measured here: HeLa viability, alamarBlue, dose 25, library dosed in µM]"
same,viability,[1],92% and 60% and 107%
same,fold increase,[2],0.96 and 2.16 and 0.97
C=CCn1c(COc2ccccc2-c2ccccc2)nnc1SC1CCOC1=O (centres undefined),min viability,[1],"95.1% [measured here: HeLa viability, alamarBlue, dose 0.078, library dosed in µg/mL]"
same,viability,[1],"98% [measured here: primary viability 10 ug/mL, library dosed in µg/mL]"
same,fold increase,[2],"1.62 [measured here: primary screen 10 ug/mL, library dosed in µg/mL]"
Cn1c(-c2c(N)n(CCCN3CCOCC3)c3nc(C#N)c(C#N)nc23)nc2ccccc21,min viability,[1],"61% [measured here: HeLa viability, alamarBlue, dose 20, library dosed in µg/mL]"
same,viability,[1],"72% [measured here: primary viability 10 ug/mL, library dosed in µg/mL]"
same,fold increase,[2],"1.39 [measured here: primary screen 10 ug/mL, library dosed in µg/mL]"
